The text below walks through data of PubChem BioAssay AID463173 (ICCB-Longwood Screening Facility, Harvard Medical School, 2010).

Hit rate of the full screen: of about 52,000 compounds, about 1,700 (3.3%) were called active. Cut-off read from the data, not from the text of the source: active = survival mostly below about 52% (no sharp cut-off); inactive = mostly above about 56%. The list shows a part of the results.

The assay deals with Wild type. The assay is described as follows: S. aureus survival, RN4220 and DeltatarO strains – OD600, teichoic acid synthesis inhibitors, primary screen (AID 463173). Conditions: S. aureus RN4220 wild type/DeltatarO growth, OD600, 18 h, hits give low values, screened at 18.75 µg/mL (by protocol).
On to `O=C(O)CCN(C(=O)C1C2C=CC(C2)C1C(=O)O)c1ccccc1` (centres undefined), for which the survival is inactive: 104%.
The result for `Cc1cccc(CSc2ncccc2C(=O)O)c1` reads inactive: 60%.
For `CCOc1ccccc1NC(=O)Cn1c(=O)n(C(C)C)c(=O)c2oc3ccccc3c21` the value was inactive: 118%; for `CC1=NN(c2ccc(Cl)cc2)C(=O)C1`, inactive: 83%.
The result for `COc1ccc(-n2nc3c(N4CCCC(C(=O)NCCc5ccccc5C)C4)nnc(C)c3c2C)cc1` (centres undefined) reads inactive: 84%.
For `COCCn1c(C)cc(O)c(C(c2ccc(F)cc2)N2CCC(C)CC2)c1=O` (centres undefined), the survival was inactive: 68%.
The result for `CCOC(=O)c1cc2occc2n1CC(=O)N1CCCCC1` reads inactive: 92%; that for `COc1ccc(-n2c(=O)c3ccc(C(=O)NCc4ccc(C)cc4)cc3n(Cc3ccc(Cl)cc3)c2=O)cc1`, inactive: 74%.
For `Cc1ccc(N(CC(=O)Nc2ccc(C)c(Cl)c2)S(=O)(=O)c2cccs2)cc1` the value was inactive: 87%.
With `COc1ccc(/C=C(\NC(=O)c2ccccc2)C(=O)N2CCOCC2)cc1`, the survival is inactive: 105%.
As for `COc1cccc(NC(=O)Cn2c(=O)n(-c3ccccc3)c(=O)c3c2c2cc(OC)ccc2n3C)c1`, the survival is inactive: 117%.
The result for `O=S(=O)(c1ccc(-c2cnc(C3CC3)o2)cc1)N1CCN(c2ccccc2)CC1` reads inactive: 65%.
The result for `CC1=C(C(=O)OC2CCCC2)C(c2ccccc2C(F)(F)F)CC(=O)N1` (centres undefined) reads inactive: 79%.
The result for `Cc1ccc(OCC(=O)Nc2cccc(C(=O)OCc3cc(=O)n4c(C)csc4n3)c2)cc1` reads inactive: 69%; that for `CCc1cccc(NC(=O)c2ccc3c(c2)c(C)c(C)n3Cc2ccc(F)cc2)c1`, inactive: 71%.
Consider `CCOc1ccccc1NC(=O)c1c(NC(=O)Cc2ccc(OC)cc2)sc2c1CCC2`, for which the survival is inactive: 77%.
For `CC(=O)c1ccc(N2CCN(c3ncnc4c3cnn4-c3cc(Cl)ccc3C)CC2)cc1` the value was inactive: 124%; for `Cc1ccc(CNC(=O)CN2N=C(c3ccccc3)CCC2=O)cc1`, inactive: 69%; for `CN1CCN(Cn2c(O)c(N=NC(=O)c3ccc(Br)cc3)c3cc(Br)ccc32)CC1`, inactive: 109%.
For `Cc1ccccc1OCC(=O)OCc1cc(=O)n2nc(-c3cccs3)sc2n1` the value was inactive: 72%.
The result for `COc1ccccc1CNC(=O)c1nnn(CC(=O)Nc2c(C)cccc2C)c1N` reads inactive: 90%; that for `Cn1c(C(=O)Nc2ccc(OC(F)(F)F)cc2)cc2c(=O)n3ccccc3nc21`, inactive: 89%.
Consider `Cc1cccc(NC(=O)CSc2nnc(CSc3nc(C)cc(C)n3)o2)c1`, for which the survival is inactive: 108%.
The result for `Cc1cc(NC(=O)C2CCCN(S(=O)(=O)c3cccc4nsnc34)C2)ccc1Br` (centres undefined) reads inactive: 82%; that for `Cc1cccc(N2CCN(C(=O)Nc3ccccc3F)CC2=O)c1C`, inactive: 95%.
The result for `O=C(Nc1cc(Cl)cc(Cl)c1)c1ccc(F)c(S(=O)(=O)N2CCN(c3ccccc3F)CC2)c1` reads inactive: 77%; that for `CCOc1ccc(NC(=O)N2CCC(N3CCCCC3)CC2)cc1`, inactive: 105%; that for `Cc1cccc(CSc2nnc3[nH]c(=O)cc(-c4ccccc4)n23)c1`, inactive: 80%.
The result for `COc1cc(-c2nc3ccc(Cl)cn3c2Nc2ccc3c(c2)OCCO3)ccc1O` reads inactive: 49%.
Turning to `O=C(c1ccc2c(c1)N(Cc1ccc(Cl)cc1)C(=O)c1ccccc1S2(=O)=O)N1CCN(c2ccccn2)CC1`, the survival is inactive: 96%.
In the case of `Cc1ccc(NC(=O)COc2ccc3oc4c(c3c2)CCCC4)cc1C`, the survival is inactive: 74%.
The result for `N#Cc1ccc(-c2ccc(OCC3CNC(=O)O3)cc2)cc1` (centres undefined) reads inactive: 121%; that for `Cc1ccc(CN2COc3c(Cl)cc4c(-c5ccccc5)cc(=O)oc4c3C2)cc1`, inactive: 87%; that for `Cc1ccc(NC(=O)C(=O)NCC2(c3ccccc3)CCCC2)cc1C`, inactive: 89%.
As for `CCc1cccc(NC(=O)c2c(C)oc3nc(C)nc(N4CCCC4)c23)c1`, the survival was inactive: 101%.
The result for `CC(=O)Nc1ccc(C(=O)N2CC(C)OC(C)C2)cc1` (centres undefined) reads inactive: 133%.
For `O=C(CN1C(=O)COc2ccc(S(=O)(=O)N3CCOCC3)cc21)N1CCN(c2ccccc2F)CC1` the value was inactive: 100%; for `Cc1nn(-c2ccccc2)c2[nH]c(=O)c(CNCc3cccnc3)cc12`, inactive: 102%; for `COC(=O)C1CCN(c2csc3ccc(Cl)cc3c2=O)CC1`, inactive: 80%.
The result for `O=C(NCCCO)c1nn(-c2ccc(Cl)cc2)nc1CO` reads inactive: 85%; that for `CSc1nc(C)cc(C)c1C(N)=O`, inactive: 102%; that for `CCCOc1ccc(CNC(=O)CN2C(=O)c3cccnc3Oc3ccc(C)cc32)cc1`, inactive: 58%.
On to `COc1ccc(S(=O)(=O)N/N=C(/C2CCCCC2)C(F)(F)F)cc1`, for which the survival is inactive: 111%.
In the case of `COc1cccc(NC(=O)Cn2c(=O)n(CCc3ccc(OC)c(OC)c3)c(=O)c3ccccc32)c1`, the survival is inactive: 72%.
The result for `CCc1ccc(OCc2cc(=O)n3cc(C)sc3n2)cc1` reads inactive: 75%.
The result for `CCOc1ccc2oc(=O)cc(CN3CCN(c4ccccc4OC)CC3)c2c1` reads inactive: 80%; that for `COc1cc(OC)c(OC)cc1CNCCCSc1nnnn1C`, inactive: 86%.
Turning to `Cc1cc(C)cc(N(CC(=O)NCc2ccco2)S(C)(=O)=O)c1`, the survival was inactive: 108%.
The result for `CCc1ccc(NCc2cc3ccc(OC)cc3n(CC(=O)Nc3ccc(C)c(Cl)c3)c2=O)cc1` reads inactive: 75%; that for `COc1ccc(C(=O)N(Cc2cc(OC)c(OC)c(OC)c2)C2CCS(=O)(=O)C2)cc1Cl` (centres undefined), inactive: 86%; that for `Cc1ccc(CSc2nc(-c3ccccc3C)nc3c2Cc2c(CO)cnc(C)c2O3)cc1`, inactive: 84%.
For `CC(=O)OC1OCCOC1NC(=S)Nc1ccc(C)cc1` (centres undefined) the value was inactive: 109%; for `Cn1cc(S(=O)(=O)N2CCOCC2)cc1C(=O)Nc1cccc(C#N)c1`, inactive: 72%; for `CC(C)Oc1ccc(CNC(=O)Cn2nc(N3CCN(c4ccccc4)CC3)ccc2=O)cc1`, inactive: 82%.
For `CCC(=O)N1CCc2cc(OC)c(OC)cc2C1COc1ccc2c(C)cc(=O)oc2c1` (centres undefined) the value was inactive: 120%; for `COc1ccc(C2c3c(n(C)c4ccccc34)C(=O)N2CC(=O)Nc2ccc(F)cc2)cc1` (centres undefined), inactive: 81%; for `CC(C)c1ccc(CNc2n[nH]c(-c3ccco3)n2)cc1`, inactive: 90%.
For the compound `COCCNC(=O)C1=CC(c2ccc3c(c2)OCO3)=NS(=O)(=O)N1C`, the survival is inactive: 103%.
Take `CCCCn1c(=N)n(CCOc2ccccc2OC)c2ccccc21`: the survival was inactive: 81%.
Regarding `Cc1ccc(C(=O)c2oc3ccccc3c2NC(=O)Cc2ccccc2)cc1`, the survival is inactive: 53%.
For `CCOc1ccc(-c2nc(SCC(=O)Nc3cc(F)ccc3F)n3[nH]c(=O)cc3n2)cc1` the value was inactive: 77%.
Turning to `NCCCSC1=NCCCN1`, the survival was inactive: 111%.
As for `CCn1nnc2cc(C(=O)Nc3ccc(Br)cc3F)ccc21`, the survival was inactive: 67%.
The result for `CCOC(=O)c1c(S(=O)(=O)N2CCC(C(=O)N3CCN(c4ccc(F)cc4)CC3)CC2)c(C)n(C)c1C` reads inactive: 73%; that for `Cc1ccc(NC(=O)C2CCCN2S(=O)(=O)c2ccc3c(c2)n(C)c(=O)c(=O)n3C)cc1C` (centres undefined), inactive: 118%.
The result for `O=C1N(Cc2ccccc2)c2ccccc2C1(O)c1c[nH]c2ccccc12` (centres undefined) reads inactive: 67%; that for `Cn1c(=O)c2c(SCC(=O)N3CCc4ccccc43)nc(-c3ccc(Cl)cc3)nc2n(C)c1=O`, inactive: 132%.
On to `O=C(NCCCN1CCN(c2ccccc2F)CC1)c1ccc2nc(N3CCCCC3)sc2c1`, for which the survival is inactive: 79%.
The result for `O=C(Nc1ccc(C(F)(F)F)cc1)C(Cc1ccccc1)n1cccc1` (centres undefined) reads active: -2%; that for `CC(=O)Nc1cccc(C(=O)NCc2ccc3c(c2)CCN3C(=O)c2ccc(F)cc2)c1`, inactive: 92%; that for `Cc1c(CCNC(=O)C(C)(C)C)sc2nc(-c3ccc(F)cc3)nn12`, inactive: 82%.
As to `COc1cccc(NS(=O)(=O)c2ccc3[nH]cc(C(=O)N4CCCC4)c(=O)c3c2)c1`, the survival is inactive: 92%.
The result for `Cc1cc2c(cc3c(SCc4ccccc4Cl)nnc(C)n32)o1` reads inactive: 53%; that for `Cc1cc(NC(=O)c2ccc(NC(=O)CCS(=O)(=O)c3cccs3)cc2)ccc1Br`, inactive: 70%; that for `CCN(C(=O)C1CCCN(c2ncnc3c2nc2n3CCCCC2)C1)c1cccc(Cl)c1` (centres undefined), inactive: 105%.
The result for `CCn1c(COc2cccc(C)c2)nnc1SCC(=O)N1C(C)CCCC1C` (centres undefined) reads inactive: 116%; that for `COc1ccccc1NC(=O)C1=C(C)Nc2nc(SCc3ccccc3)nn2C1c1ccncc1` (centres undefined), inactive: 83%.
For `CC(=O)c1ccc(NC(=O)COCc2cc(-c3ccc(F)cc3)on2)cc1` the value was inactive: 75%; for `COc1cc(OC)c(N(C)C(=O)c2sc3nc4n(c(=O)c3c2C)CCCCC4)cc1Cl`, inactive: 82%; for `COc1cc(NC(=O)Cn2nc3c(cc2=O)CC(C)CC3)cc(OC)c1OC` (centres undefined), inactive: 75%.
For the compound `Cc1cc(Nc2cc(F)ccc2C)nc(-n2nc(C)cc2C)n1`, the survival is inactive: 67%.
As for `CCn1cc(C(=O)N2CCN(c3ccc(OC)cc3)CC2)c(=O)c2cc(S(=O)(=O)N3CCOCC3)ccc21`, the survival is inactive: 141%.
The result for `CN(C)S(=O)(=O)N(CC(=O)NCCSc1ccccc1)c1ccccc1` reads inactive: 71%; that for `Cc1ccc(N(C(=O)Cn2nnc(-c3ccc(C)o3)n2)C(C(=O)NCC2CCCO2)c2ccc(F)cc2)cc1` (centres undefined), inactive: 103%.
As for `Cc1c(C(=O)N2CCC(C)CC2)c(S(=O)(=O)Nc2ccc(OC(F)(F)F)cc2)c(C)n1C`, the survival is inactive: 63%.
The result for `CC(C)N(Cc1ccccc1)C(=O)CN1C(=O)CSc2ccc(S(=O)(=O)N3CCCC3)cc21` reads inactive: 100%; that for `COc1ccc2[nH]cc(CCN=C(NC(=O)c3ccccc3C)Nc3nc(C)cc(C)n3)c2c1`, inactive: 41%.
For `COc1ccc(OCC(=O)Nc2ccc(-c3nc4cc(C)c(C)cc4o3)cc2)cc1` the value was inactive: 77%; for `O=C(Cn1ncc2c3ccccc3n(Cc3ccc(F)cc3)c2c1=O)NCCCN1CCCCC1`, inactive: 85%.
